Measured values published in patent US3987028A, “Antibiotic 20,798 R.P” (Rhone-Poulenc S.A., priority 1968, dated 1976).

Test system: Klebsiella pneumoniae resistant to antibiotic 9865 R.P.
Settings: read-out: Minimal inhibitory concentration
Procedure: The bacteriostatic activity of 20,798 R.P. was determined by one of the dilution methods usually employed for this purpose. For each microorganism the minimum concentration of antibiotic, which under specified conditions inhibits all visible development of the microorganism in an appropriate nutrient medium, was determined. The results of the various determinations are collected in Table III below, in which the minimum bacteriostatic concentrations are expressed in micrograms of substance per cc. of test medium.

SMILES: COc1cccc2c1C(=O)c1c(O)c3c(c(O)c1C2=O)CC(O)(C(C)O)CC3OC1CC(N)C(O)C(C)O1 (stereo not shown) [20,798 R.P.]
- MIC: > 200 mg/L
